{
  "sequences": {"note": "The chains behind the UniProt entries cited, without tags or fusion partners. Residues count along the entry.", "UniProt P18564, residues 22-788": "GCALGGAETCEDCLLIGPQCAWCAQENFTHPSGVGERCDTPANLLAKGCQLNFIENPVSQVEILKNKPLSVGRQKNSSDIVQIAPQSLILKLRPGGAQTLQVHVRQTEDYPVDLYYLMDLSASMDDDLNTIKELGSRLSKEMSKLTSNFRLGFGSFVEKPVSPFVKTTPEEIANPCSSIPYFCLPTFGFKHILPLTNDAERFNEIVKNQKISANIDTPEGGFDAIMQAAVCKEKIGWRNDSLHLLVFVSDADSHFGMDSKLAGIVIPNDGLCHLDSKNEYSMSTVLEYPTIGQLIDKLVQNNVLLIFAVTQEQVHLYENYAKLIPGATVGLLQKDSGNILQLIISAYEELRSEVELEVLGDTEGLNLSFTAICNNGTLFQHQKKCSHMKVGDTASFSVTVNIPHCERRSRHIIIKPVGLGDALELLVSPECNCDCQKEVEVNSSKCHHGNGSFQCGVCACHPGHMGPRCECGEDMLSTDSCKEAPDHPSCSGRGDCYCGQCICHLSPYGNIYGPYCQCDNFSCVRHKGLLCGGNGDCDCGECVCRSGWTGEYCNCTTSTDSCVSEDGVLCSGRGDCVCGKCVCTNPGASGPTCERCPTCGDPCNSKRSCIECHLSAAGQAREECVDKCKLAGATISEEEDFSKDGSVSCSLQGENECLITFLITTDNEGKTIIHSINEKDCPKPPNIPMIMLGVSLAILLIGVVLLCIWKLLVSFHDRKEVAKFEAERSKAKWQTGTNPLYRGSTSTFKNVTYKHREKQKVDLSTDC"},
  "source": "paper PMC4949421",
  "key": {"FLAG-DSP aa183-219": {"molecular_target": "T1, FLAG-DSP aa183-219 (UniProt P97399)", "T1 sequence": "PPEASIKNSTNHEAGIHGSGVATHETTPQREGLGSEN", "experiment": "co-IP; FLAG-DSP fragments and Myc-integrin β6 co-transfected (293T cells, 48 h, by the results and legend; mDPC6T by the methods); lysis in 50 mM Tris-HCl pH 7.4, 150 mM NaCl, 1 mM EDTA, 1% Triton X-100; anti-FLAG or anti-Myc affinity gel at 4 °C overnight; western blot with anti-FLAG or anti-Myc"}, "GST-DSP aa214-246": {"molecular_target": "T2, GST-DSP aa214-246 (UniProt P97399)", "T2 sequence": "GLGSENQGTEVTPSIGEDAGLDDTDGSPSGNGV", "experiment": "pull-down; purified GST-DSP fusion protein incubated with lysate of mouse odontoblast-like cells in lysis buffer overnight at 4 °C; glutathione agarose beads; eluted with reduced glutathione; western blot with anti-DSP and anti-β6 antibodies; only the target purified"}, "GST-DSP aa183-295": {"molecular_target": "T3, GST-DSP aa183-295 (UniProt P97399)", "T3 sequence": "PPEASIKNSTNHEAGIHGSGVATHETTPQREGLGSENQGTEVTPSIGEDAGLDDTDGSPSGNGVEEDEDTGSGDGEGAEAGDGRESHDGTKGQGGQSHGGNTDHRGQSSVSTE", "experiment": "pull-down; purified GST-DSP fusion protein incubated with lysate of mouse odontoblast-like cells in lysis buffer overnight at 4 °C; glutathione agarose beads; eluted with reduced glutathione; western blot with anti-DSP and anti-β6 antibodies; only the target purified"}, "GST-DSP aa365-456": {"molecular_target": "T4, GST-DSP aa365-456 (UniProt P97399)", "T4 sequence": "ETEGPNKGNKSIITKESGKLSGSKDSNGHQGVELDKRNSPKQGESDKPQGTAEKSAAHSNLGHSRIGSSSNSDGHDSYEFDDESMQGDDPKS", "experiment": "pull-down; purified GST-DSP fusion protein incubated with lysate of mouse odontoblast-like cells in lysis buffer overnight at 4 °C; glutathione agarose beads; eluted with reduced glutathione; western blot with anti-DSP and anti-β6 antibodies; only the target purified"}, "GST-DSP aa266-371": {"molecular_target": "T5, GST-DSP aa266-371 (UniProt P97399)", "T5 sequence": "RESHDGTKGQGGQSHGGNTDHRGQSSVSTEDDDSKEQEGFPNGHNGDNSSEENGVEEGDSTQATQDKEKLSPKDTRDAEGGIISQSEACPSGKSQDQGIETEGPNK", "experiment": "pull-down; purified GST-DSP fusion protein incubated with lysate of mouse odontoblast-like cells in lysis buffer overnight at 4 °C; glutathione agarose beads; eluted with reduced glutathione; western blot with anti-DSP and anti-β6 antibodies; only the target purified"}, "GST-DSP aa266-299": {"molecular_target": "T6, GST-DSP aa266-299 (UniProt P97399)", "T6 sequence": "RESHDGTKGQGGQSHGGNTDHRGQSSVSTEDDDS", "experiment": "pull-down; purified GST-DSP fusion protein incubated with lysate of mouse odontoblast-like cells in lysis buffer overnight at 4 °C; glutathione agarose beads; eluted with reduced glutathione; western blot with anti-DSP and anti-β6 antibodies; only the target purified"}, "GST-DSP aa183-219": {"molecular_target": "T7, GST-DSP aa183-219 (UniProt P97399)", "T7 sequence": "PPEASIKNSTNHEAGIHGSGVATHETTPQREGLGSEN", "experiment": "pull-down; purified GST-DSP fusion protein incubated with lysate of mouse odontoblast-like cells in lysis buffer overnight at 4 °C; glutathione agarose beads; eluted with reduced glutathione; western blot with anti-DSP and anti-β6 antibodies; only the target purified"}, "[1]": {"molecular_target": "T8, GST-DSP fusion protein (DSP 9-456) (UniProt P97399)", "T8 sequence": "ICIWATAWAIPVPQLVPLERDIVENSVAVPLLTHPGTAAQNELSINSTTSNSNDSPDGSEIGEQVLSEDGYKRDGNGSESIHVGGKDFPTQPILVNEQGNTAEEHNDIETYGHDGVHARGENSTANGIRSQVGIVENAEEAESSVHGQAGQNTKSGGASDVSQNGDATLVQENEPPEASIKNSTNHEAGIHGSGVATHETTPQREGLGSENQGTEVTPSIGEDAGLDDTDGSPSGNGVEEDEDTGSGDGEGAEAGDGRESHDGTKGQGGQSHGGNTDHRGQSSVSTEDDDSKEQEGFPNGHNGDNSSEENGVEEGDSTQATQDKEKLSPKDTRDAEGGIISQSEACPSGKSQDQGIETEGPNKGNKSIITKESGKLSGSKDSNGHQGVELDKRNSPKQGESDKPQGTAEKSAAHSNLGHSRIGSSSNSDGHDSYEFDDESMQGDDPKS", "experiment": "pull-down; purified GST-DSP fusion protein incubated with lysate of mouse odontoblast-like cells in lysis buffer overnight at 4 °C; glutathione agarose beads; eluted with reduced glutathione; western blot with anti-DSP and anti-β6 antibodies; only the target purified"}, "[2]": {"molecular_target": "T9, GST-NH2-terminal DSP aa9-190 (UniProt P97399)", "T9 sequence": "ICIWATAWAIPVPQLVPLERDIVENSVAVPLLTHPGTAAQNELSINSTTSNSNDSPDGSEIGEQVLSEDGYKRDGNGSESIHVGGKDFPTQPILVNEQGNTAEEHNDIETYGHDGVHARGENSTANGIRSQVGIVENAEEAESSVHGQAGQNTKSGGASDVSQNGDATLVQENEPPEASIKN", "experiment": "pull-down; purified GST-DSP fusion protein incubated with lysate of mouse odontoblast-like cells in lysis buffer overnight at 4 °C; glutathione agarose beads; eluted with reduced glutathione; western blot with anti-DSP and anti-β6 antibodies; only the target purified"}, "GST-DSP aa240-271": {"molecular_target": "T10, GST-DSP aa240-271 (UniProt P97399)", "T10 sequence": "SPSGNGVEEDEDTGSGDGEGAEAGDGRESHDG", "experiment": "pull-down; purified GST-DSP fusion protein incubated with lysate of mouse odontoblast-like cells in lysis buffer overnight at 4 °C; glutathione agarose beads; eluted with reduced glutathione; western blot with anti-DSP and anti-β6 antibodies; only the target purified"}, "[3]": {"molecular_target": "T11, GST-COOH-terminal DSP aa183-456 (UniProt P97399)", "T11 sequence": "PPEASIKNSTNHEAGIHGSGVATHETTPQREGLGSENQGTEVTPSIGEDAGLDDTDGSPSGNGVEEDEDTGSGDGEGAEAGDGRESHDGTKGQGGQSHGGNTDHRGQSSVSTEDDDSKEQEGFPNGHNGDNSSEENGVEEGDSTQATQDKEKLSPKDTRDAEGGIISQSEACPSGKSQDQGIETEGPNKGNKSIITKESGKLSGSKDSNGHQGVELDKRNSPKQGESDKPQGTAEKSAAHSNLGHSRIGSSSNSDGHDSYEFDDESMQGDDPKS", "experiment": "pull-down; purified GST-DSP fusion protein incubated with lysate of mouse odontoblast-like cells in lysis buffer overnight at 4 °C; glutathione agarose beads; eluted with reduced glutathione; western blot with anti-DSP and anti-β6 antibodies; only the target purified"}},
  "note": "Results are given in words; binding and its absence hold for the method and conditions named. In cells and extracts the contact can be indirect. Some binding calls cover weakened binding; strength is not graded here. Sequences can lack the tags named with a protein.",
  "data": [
    {"molecule": "Myc-integrin β6 (from UniProt P18564 22-788) (receptor)", "values": [
      {"measurement": "binding", "setting": "FLAG-DSP aa183-219", "value": "binds"}
    ]},
    {"molecule": "integrin β6 (endogenous, mouse odontoblast-like cells) (receptor, UniProt Q9Z0T9 22-787) GCAWGGAESCSDCLLTGPHCAWCSQENFTHLSGAGERCDTPANLLAKGCQLPFIENPVSRIEVLQNKPLSVGRQKNSSDIVQIAPQSLVLKLRPGREQTLQVQVRQTEDYPVDLYYLMDLSASMDDDLNTIKELGSRLAKEMSKLTSNFRLGFGSFVEKPVSPFMKTTPEEITNPCSSIPYFCLPTFGFKHILPLTDDAERFNEIVRKQKISANIDTPEGGFDAIMQAAVCKEKIGWRNDSLHLLVFVSDADSHFGMDSKLAGIVIPNDGLCHLDHRNEYSMSTVLEYPTIGQLIDKLVQNNVLLIFAVTQEQVHLYENYAKLIPGATVGLLQKDSGNILQLIISAYEELRSEVELEVLGDTEGLNLSFTALCNNGVLFPHQKKCSHMKVGDTASFNVTVSVSNCEKRSRNLIIKPVGLGDTLEILVSAECDCDCQREIETNSSKCHNGNGSFQCGVCTCNPGHMGPHCECGEDMVSTDSCKESPGHPSCSGRGDCYCGQCICHLSPYGSIYGPYCQCDNFSCLRHKGLLCGDNGDCDCGECVCRDGWTGEYCNCTTNRDSCTSEDGVLCSGRGDCVCGKCVCRNPGASGPTCERCPTCGDPCNSKRSCIECYLSADGQAQEECADKCKAIGATISEEDFSKDTSVSCSLQGENECLITFLITTDNEGKTIIHNINEKDCPKPPNIPMIMLGVSLAILLIGVVLLCIWKLLVSFHDRKEVAKFEAERSKAKWQTGTNPLYRGSTSTFKNVTYKHREKHKAGLSSDG", "values": [
      {"measurement": "binding", "setting": "GST-DSP aa214-246", "value": "no binding"},
      {"measurement": "binding", "setting": "GST-DSP aa183-295", "value": "binds"},
      {"measurement": "binding", "setting": "GST-DSP aa365-456", "value": "no binding"},
      {"measurement": "binding", "setting": "GST-DSP aa266-371", "value": "no binding"},
      {"measurement": "binding", "setting": "GST-DSP aa266-299", "value": "no binding"},
      {"measurement": "binding", "setting": "GST-DSP aa183-219", "value": "binds"},
      {"measurement": "binding", "setting": "[1]", "value": "binds"},
      {"measurement": "binding", "setting": "[2]", "value": "no binding"},
      {"measurement": "binding", "setting": "GST-DSP aa240-271", "value": "no binding"},
      {"measurement": "binding", "setting": "[3]", "value": "binds"}
    ]}
  ]
}
